Laboratory results as given in PubChem BioAssay AID1347073 (National Center for Advancing Translational Sciences (NCATS), 2019).
About 200 (0.44%) of roughly 45,000 compounds were called active. Roughly 7% stayed inconclusive and do not appear here. The call rests on the fitted dose curve; in most records, active means well fitted activation curve with a large enough effect; inconclusive means small, poorly fitted or top-dose-only effect; inactive means no such curve, though single readings can be large or run the other way. The list shows a part of the results.

experiment: qHTS of TDP-43 Inhibitors: NCGC Sytravon Library Screen; conditions: yeast TDP-43 toxicity rescue, BacTiter-Glo growth, 24 h; series mostly up to 46.1 µM; growth rescue (activation): at the top concentration; further: 0% is about no effect; nearly all actives have a fitted effect of over 55% in size
Method in brief: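 TDP-43-expressing yeast, pregrown in raffinose, seeded at OD600 0.02 in galactose medium with compound for 24 hr at 30 deg C. Growth read by BacTiter-Glo luminescence, so rescue of toxicity appears as activation.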

Compound | growth rescue (activation)
COCCCNC(=O)C(C#N)c1nc2ccccc2nc1N1CCCC1 (centres undefined) | inactive: 8.89%
Cc1ccc(-c2ccc(C(=O)NCCCNC(=O)c3cnccn3)o2)cc1Cl | inactive: 29.4%
Cc1ccc(S(=O)(=O)NN2C(=O)c3ccccc3NC2C)cc1 (centres undefined) | inactive: 8.11%
CCOC(=O)c1c(-c2ccc(-c3ccccc3)cc2)csc1NC(=O)CNCCN(C)C | inactive: -32.1%
Cn1cc(C(=O)N/N=C/c2ccc3c(c2)OCO3)c2ccccc21 | inactive: 10.9%
CCOC(=O)Cn1ncn(-c2ccc(OC(F)(F)F)cc2)c1=O | inactive: -1.67%
O=C(NC12CC3CC(CC(C3)C1)C2)c1ccccc1 | inactive: 22.5%
C/C(=N\Nc1ccc2nncn2n1)c1ccc(Br)s1 | inactive: 5.42%
COc1ccc(CNC(=O)CN2C(=O)NC(C)(c3cccc4ccccc34)C2=O)cc1OC (centres undefined) | inactive: -13.8%
COc1ccc(C(=O)N2CCCC(C)(C(=O)NS(=O)(=O)C3CC3)C2)cc1 (centres undefined) | inactive: -2.59%
CCc1ccc(NC(=O)Cc2ccc(-n3cccc3)cc2)cc1 | inactive: 17.7%
CC(C)N1CCC(n2nccc2NC(=O)c2ccc3c(c2)OCO3)CC1 | inactive: 9.44%
COc1cc(C(=O)NCC(=O)N/N=C/c2cccnc2)cc(OC)c1OC | inactive: 7.59%
COc1cccc(CNc2nc(NC(C)C)nc3ccsc23)c1OC | inactive: 9.33%
COc1ccc(CNS(=O)(=O)c2ccc(-n3cnnn3)c(OC)c2)cc1 | inactive: 6.09%
COc1ccc(C2c3ccc4ccccc4c3Oc3ncn4nc(Cc5ccccc5)nc4c32)cc1OC (centres undefined) | inactive: -2.15%
Cc1ccc(S(=O)(=O)N2c3ccccc3CC2C)cc1 (centres undefined) | inactive: -27%
O=C(O)c1cnn(-c2ccccc2)c1-c1ccncc1 | inactive: -4.48%
CCOC(=O)N1CCN(C(=S)NC(=O)c2ccc(F)cc2)CC1 | inactive: 10.3%
COc1cccc(CN2CCC(N(CCc3ccccc3)Cc3ccccc3)CC2)c1OC | inactive: -51.1%
CCOC(=O)c1sc(N2C(=O)C(O)=C(C(=O)c3ccco3)C2c2ccco2)nc1C (centres undefined) | inactive: -2.12%
COc1cc(C(=O)Nc2ccc(C)cc2)c2ccccc2n1 | inactive: -5.52%

Compound | growth rescue (activation)
Cc1ccc(NC(=O)N2CCN(c3ccc(Cl)c(Cl)c3)CC2)cc1 | inactive: 12.2%
COc1c(Br)cc2c(C)c(C(=O)O)oc2c1Br | inactive: 27.1%
CC(C)(C)NC(=O)CN(C(=O)c1csnn1)c1ccccc1-c1ccccc1 | inactive: -5.05%
Cc1ccc(F)cc1CNC(=O)c1cc(COc2ccc3ncccc3c2)on1 | inactive: 7.06%
CC(C)(C)c1nnc(NC(=O)Cc2ccc(Br)cc2)s1 | inactive: 0.69%
CC1(C(=O)NCc2ccc3c(c2)OCO3)CCN1C(=O)Cc1cccc2ccccc12 (centres undefined) | inactive: 22.8%
COC(=O)C1CCN(CC(=O)Nc2ccc3c(c2)OCCO3)CC1 | inactive: -21.6%
CCOc1ccc(N2C(=O)CC(N(Cc3ccco3)C(=O)CCC(=O)O)C2=O)cc1 (centres undefined) | inactive: 9.25%
CCN(C(=O)CSc1nnc(Nc2cccc(C)c2C)s1)C1CCS(=O)(=O)C1 (centres undefined) | inactive: -13.8%
Cc1nn(C(C)C(=O)NC2C(=O)N3C(C(=O)O)=C(CSc4nnnn4C)CSC23)cc1Cl (centres undefined) | inactive: -8.9%
COc1ccccc1OCC(=O)Nc1cc(S(=O)(=O)N2CCCCC2)ccc1N1CCCCC1 | inactive: 8.32%
O=C(CSc1nc2ccccc2c(=O)n1-c1ccc(OC(F)F)cc1)NCc1cccs1 | inactive: 8.5%
Cc1nnc(SCC(=O)Nc2ccc(S(N)(=O)=O)cc2)n(N)c1=O | inactive: 1.59%
CC1=CC(c2ccccc2)n2nnnc2N1 (centres undefined) | inactive: 9.72%
Cc1ccc(C(=O)OCC(=O)c2c[nH]c3ccccc23)cc1 | inactive: 24.5%
Cc1ccccc1OCC(=O)NC(=S)Nc1ccc(N2CCCC2)cc1 | inactive: -2.63%
Oc1[nH]c2ccccc2c1N=Nc1ccccc1F | inactive: 20.8%
COc1cc2c(cc1OC)C(SC)=NC1(CCCC1)C2 | inactive: 1.49%
Cc1cc(NC(=O)COc2ccc(C)c(C)c2)no1 | inactive: 15.5%
CCC(OC(=O)c1ccco1)C(=O)NCc1ccc2c(c1)OCO2 (centres undefined) | inactive: -31.8%
CC1(C)C2CCC(C2)C1(C)NC(=O)CNCC1CCCCC1 (centres undefined) | inactive: 4.31%
S=C(NCCCc1ccccc1)Nc1ccc(Cl)cc1 | inactive: -91.1%

Compound | growth rescue (activation)
O=C(CCCOc1ccccc1)NNC(=O)c1ccncc1 | inactive: -12.9%
COc1ccc(C2/C(=C(/O)c3ccc(C)cc3)C(=O)C(=O)N2CC2CCCO2)cc1OC (centres undefined) | inactive: -2.2%
O=C(NCc1ccccc1Cl)C1CCCN(S(=O)(=O)c2cccc3nonc23)C1 (centres undefined) | inactive: -4.57%
CC(Oc1ccccc1Cl)c1nnc(N)s1 (centres undefined) | inactive: 19.7%
Cc1ccnc(NS(=O)(=O)c2ccc(N3C(=O)Nc4ccccc4N3O)cc2)c1 | inactive: -4.24%
CC1CC(C)CN(C(=O)COc2cccnc2[N+](=O)[O-])C1 (centres undefined) | inactive: -8.57%
Cc1cc(C)n(CC2CC(=O)N(c3ccc(C)c(Cl)c3)C2=O)n1 (centres undefined) | inactive: 7.76%
Cc1cc(NC(=O)CCC(=O)N(Cc2ccco2)C(C(=O)NC2CCCC2)c2ccc(F)cc2)no1 (centres undefined) | inactive: 19.4%
CCn1cc(C2C3=C(CC(C)(C)CC3=O)N(c3ccccc3)C3=C2C(=O)CC(C)(C)C3)c(C)n1 | inactive: 6.35%
CCCCCCCC(=O)NNC(=O)c1c(O)c2ccccc2n(CC)c1=O | inactive: -17.2%
Clc1ccc(-c2c[n+](Cc3ccc(Br)cc3)c3n2CCCCC3)cc1 | inactive: -8.09%
COc1ccccc1N=c1oc2cc(O)ccc2cc1C(N)=O | inactive: -33.7%
O=C(CSc1nc2ccc([N+](=O)[O-])cc2s1)NCC1CCCO1 (centres undefined) | inactive: 13.6%
O=C(COC(=O)c1cccc(Br)c1)NCC1CCCO1 (centres undefined) | inactive: 10.9%
COc1cc(/C=N/NC(=S)NC(C)C)ccc1OCC(=O)Nc1c(C)cc(C)cc1C | inactive: 13.2%
Cc1ccc(CNC(=O)C(C)C2Sc3ccccc3NC2=O)cc1 (centres undefined) | inactive: -12%
Cc1ccc(CSC2=Nc3ccccc3C3=NC(=O)CN23)cc1 | inactive: 5.6%
COc1cc(/C=C2\CCCc3c2nc2ccccc2c3C(=O)O)cc([N+](=O)[O-])c1O | inactive: -32.8%
CC(=O)Nc1ccc(S(=O)(=O)N2CCN(S(=O)(=O)N3CCC(C)CC3)CC2)cc1 | inactive: 16.3%
Cc1csc(=Nc2ccccc2)n1CCO | inactive: 8.7%
CN(C(=O)COC(=O)c1cncc(Br)c1)C1CCCCC1 | inactive: -14.1%
CC(=O)Nc1ccc(SCC(=O)NCC2(N3CCCCC3)CCCCC2)cc1 | inactive: 13.4%

Compound | growth rescue (activation)
Cc1ccc(OCC(=O)N2CCN(S(C)(=O)=O)CC2)cc1 | inactive: 6.89%
N#Cc1ccccc1NC(=O)COC(=O)c1c[nH]c2ccccc12 | inactive: 4.77%
Cc1cccc(C(=O)n2c(=S)nc3cc(C)ccn32)c1 | inactive: 17.2%
COC(=O)c1cnc(NC(=O)C2(C)CCCN(C(C)=O)C2)s1 (centres undefined) | inactive: 6.63%
COc1ccc(C2=C(C)CC(C)(C)NC2=O)cc1OC | inactive: 10.5%
COc1ccccc1C1C(C#N)=C(N)Oc2c1oc(CO)cc2=O (centres undefined) | inactive: -5.64%
CC(C)n1c(CNC(=O)c2ccccc2F)nnc1SCC(=O)c1ccc(F)cc1 | inactive: 9.33%
O=C(CSc1nnc(-c2ccc(Cl)cc2)n1Cc1ccco1)NCc1ccc2c(c1)OCO2 | inactive: -4.82%
Cc1cc(CN(C)Cc2ccc(OCC(O)CN(C)Cc3ccccc3)cc2)on1 (centres undefined) | inactive: 3.34%
O=c1[nH]cnc2c1N=C(c1cccc([N+](=O)[O-])c1)CC(c1ccccc1)N2 (centres undefined) | inactive: 11.9%
O=c1c(NCCc2ccccc2)c(-c2ccccc2)c1=O | inactive: -0.492%
Cc1ccc(/C=C/C(=O)N2CC(=O)Nc3ccccc32)o1 | inactive: 0.325%
O=C(CSc1nnc2c(n1)[nH]c1ccccc12)Nc1ccc(S(=O)(=O)Nc2ncccn2)cc1 | inactive: -1.73%
O=C(NCCN1C(=O)S/C(=C/c2cccnc2)C1=O)C1CC(=O)N(Cc2ccccc2)C1 (centres undefined) | inactive: 6.24%
COc1cccc(CC2(CO)CCCN(Cc3ccc4c(c3)OCCO4)C2)c1 (centres undefined) | inactive: 9.91%
C=CCN(c1ccccc1OC)S(=O)(=O)c1cccc(C(=O)NC2=NCCS2)c1 | inactive: -61.9%
Cc1cc(C(=O)N/N=C/C(Cl)=C/c2ccccc2)c(C)o1 | inactive: 5.59%
COc1ccccc1OCCOCCOc1c(C)cc(C)cc1Br | inactive: 5.25%
Cc1ccc(NC(=O)CN2C(=O)c3ccccc3C2=O)c(C)c1 | inactive: 7.15%
COc1ccc(-c2nnc(SCC(=O)N3CCOCC3)o2)cc1 | inactive: -24.9%
CCC(C)Nc1nnc(SCC(=O)c2c(N)n(C3CC3)c(=O)[nH]c2=O)s1 (centres undefined) | inactive: -0.754%
Cc1cccc(Oc2ccc(NC(=O)C3CC=CCC3C(=O)O)cc2)c1 (centres undefined) | inactive: 7.03%

Compound | growth rescue (activation)
Cc1nonc1NC(=O)CSc1cn[nH]n1 | inactive: -3.65%
COc1ccc(-n2c(C)nnc2SCC(=O)Nc2ccccc2F)cc1 | inactive: 5.2%
CC(O)CCc1nc2ccc(C(=O)O)cc2[nH]1 (centres undefined) | inactive: 2.02%
COc1ccccc1C(=O)COC(=O)c1ccccc1O | inactive: 20.7%
CC(CC(=O)O)CC(=O)NNC(=O)c1cccc(Br)c1 (centres undefined) | inactive: 9.56%
Cc1c(C#N)c2ccccc2n1CC(=O)NCc1cccnc1 | inactive: 19.1%
COc1ccc(-n2ncc3c2ncn2nc(-c4ccc(OC)c(OC)c4)nc32)cc1 | inactive: 1.5%
Cn1c(=O)c2c(nc(NCc3ccco3)n2CCc2ccccc2)n(C)c1=O | inactive: -26.7%
Cc1ccc(F)cc1NC(=O)CCOc1ccccc1 | inactive: 19.9%
CC(=O)NS(=O)(=O)c1ccc(NC(=O)c2cc(-c3cccs3)nc3ccccc23)cc1 | inactive: -12.3%
Cc1cccnc1NC1(C(F)(F)F)N=C2SCCN2C1=O (centres undefined) | inactive: 2.86%
COc1cccc(NC(=O)CCC(=O)Nc2cc(OC)c(NC(=O)c3cccs3)cc2OC)c1 | inactive: -3.62%
O=C(Nc1ccc(S(=O)(=O)N2CCCC2)cc1)C1CC(=O)N(c2ccc(F)cc2)C1 (centres undefined) | inactive: -1.86%
C=CCn1c(SCC(N)=O)nnc1-c1cc2c(s1)CCC(CC)C2 (centres undefined) | inactive: 1.59%
O=C(CN1C(=O)C2CC=CCC2C1=O)Nc1nc2ccc(F)cc2s1 (centres undefined) | inactive: -6.62%
O=C(CNCCc1ccc(Cl)cc1Cl)NCc1ccco1 | inactive: 6.77%
Cc1cc(C)n(-c2ccc(Cl)c(Cl)c2)n1 | inactive: 16%
COc1ccc(CCNC(=O)c2ccccc2NS(=O)(=O)c2c(F)cccc2F)cc1 | inactive: 5.85%
Cn1c(=O)c2cc(NC(=O)NCCc3ccccc3)ccc2n1Cc1ccc(F)cc1 | inactive: -1.6%
COc1ccc(Cn2c(=O)[nH]c3cc(C(=O)NCCCN4CCCCCC4)ccc3c2=O)cc1 | inactive: 1.68%
FC(F)(F)c1cccc(Nc2nc3nonc3nc2Nc2ccc(Cl)cc2)c1 | inactive: -91.5%
